The record followed here is patent US10280198B2, “Therapeutic agents for reducing parathyroid hormone levels” (KAI PHARMACEUTICALS, INC., priority 2009, dated 2019).

For data set [1], the system named is plasma PTH. The data set can be described thus: In vivo PTH lowering after IV bolus in isoflurane-anesthetized normal Sprague Dawley rats. Also on record: species or system rat. Conditions: for 0.5 mg/kg IV bolus % PTH AUC of saline control / % PTH AUC of saline control: normal rats; for 0.5 mg/kg IV bolus % PTH AUC of saline control: AUC 1-4 h. As to the method:
The peptides were administered intravenously at a dose of 0.5 mg/kg into isoflurane-anesthetized normal Sprague Dawley rats. A control group of rats was treated with saline. Blood was drawn prior to dosing and every hour for 4 hours. Rats were maintained under isoflurane anesthesia for the entire study. […] Percent PTH reduction was calculated according to the following formula: AUCcmpd treated/AUCsaline control*100.
An intravenous (IV) bolus of saline was used as a control. Plasma (K2EDTA) PTH levels were assessed prior to dosing and 1, 2, 3 and 4 hours after dosing. Rats were maintained under isoflurane anesthesia for the entire study. […] In FIG. 2B, PTH is shown as percent of the baseline pre-dose value.
A series of compounds having an L-amino acid residue substituted for a D-amino acid residue were prepared. The compounds were administered as an IV bolus to normal Sprague Dawley rats at a dose of 0.5 mg/kg. An intravenous (IV) bolus of saline was used as a control. […] Rats were maintained under isoflurane anesthesia for the entire study.

The test system of data set [2] is rat peritoneal mast cells. The data set can be described thus: In vitro histamine induction in rat peritoneal mast cells. The format is cell-based. How it is done: To further evaluate the relationship between compound structure and histamine release, a series of compounds was prepared and assessed for their ability to trigger induction of histamine in an in vitro assay using rat peritoneal mast cells. In this assay, compounds are incubated at 10 μM for 15 minutes at 37° C. with cells isolated from peritoneal lavage of SD rats. Following incubation, cell medium is collected and histamine is determined.
Accordingly, and as can be appreciated in view of the PTH data and the histamine data described hereinabove, in one embodiment, a compound that has activity to decrease PTH level in a subject in the absence of a histamine response is contemplated. In certain embodiments, absence of a histamine response intends a dose of the compound that produces a less than 10-fold, more preferably 8-fold, still more preferably 5-fold, and even still more preferably 3-fold, increase in histamine, measured in vitro in an assay as described herein, where the fold change is determined based on histamine levels before incubation with the compound and after 15 minutes incubation with compound. In a specific embodiment, the histamine response is determined in an in vitro assay using rat peritoneal mast cells isolated from peritoneal lavage of normal Sprague Dawley rats, and where the fold change is determined based on histamine levels before incubation with the compound and after 15 minutes incubation with compound. In the studies conducted herein, the in vitro evaluation of histamine release was performed using isolated rat peritoneal mast cells isolated by peritoneal lavage using cold HBSS+25 mM HEPES pH 7.4 containing heparin (5 u/mL). Cells were washed twice in stimulation buffer (HBSS+25 mM HEPES pH 7.4) and incubated with 10 μM of compound in stimulation buffer (HBSS+25 mM HEPES pH 7.4) for 15 minutes in a 96-well plate ([…]) at 37° C. Cell supernatant was analyzed for histamine using histamine EIA kit (Cayman #589651).
For in vitro evaluation of histamine release, isolated rat peritoneal mast cells were isolated by performing peritoneal lavage using cold HBSS+25 mM HEPES pH 7.4 containing heparin (5 u/mL). Cells were washed twice in stimulation buffer (HBSS+25 mM HEPES pH 7.4) and incubated with 10 μM of compound in stimulation buffer (HBSS+25 mM HEPES pH 7.4) for 15 minutes in a 96-well plate (10^6/well) at 37° C. Cell supernatant was analyzed for histamine using histamine EIA kit (Cayman #589651).

Square brackets hold non-standard residues; d marks the D form. Peptide text beside a SMILES is read from it.

Regarding Ac-dPen-rrrrrr-NH2 [SEQ ID NO: 33], the “0.5 mg/kg IV bolus % PTH AUC of saline control” value (“0.5 mg/kg IV bolus % PTH AUC” below) in data set [1] (Table 3) is recorded as 9%.
For Ac-carrr-Nle-r-NH2 [SEQ ID NO: 129], the “0.5 mg/kg IV bolus % PTH AUC” value in data set [1] (Table 7) was 64%.
Consider `CC(=O)N[C@H](CS)C(=O)N[C@H](CCCNC(=N)N)C(=O)N[C@H](CCCNC(=N)N)C(=O)N[C@H](CCCNC(=N)N)C(=O)N[C@H](CCCNC(=N)N)C(=O)N[C@H](C)C(=O)N[C@H](C)C(N)=O` [SEQ ID NO: 146, Ac-crrrraa-NH2] (Ac-[dC][dR][dR][dR][dR][dA][dA]-NH2), for which, in data set [2], the “Histamine in vitro Fold change of non-treated at 10 uM” value is given as 1.9 fold.
Take Ac-c-Nma-rrr-Nma-r-NH2 [SEQ ID NO: 118]: in data set [1] (Table 7), the “0.5 mg/kg IV bolus % PTH AUC” value stood at 105%.
On to Mpa-rrrrrr-NH2 [SEQ ID NO: 31], for which the “0.5 mg/kg IV bolus % PTH AUC” value in data set [1] (Table 3) worked out at 2%.
For `CC[C@@H](C)[C@@H](NC(=O)[C@@H](CCCNC(=N)N)NC(=O)[C@@H](C)NC(=O)[C@@H](CCCNC(=N)N)NC(=O)[C@@H](CCCNC(=N)N)NC(=O)[C@@H](CS)NC(C)=O)C(=O)N[C@H](CCCNC(=N)N)C(N)=O` [SEQ ID NO: 152, Ac-crrarir-NH2] (Ac-[dC][dR][dR][dA][dR][dI][dR]-NH2), the “Histamine in vitro Fold change of non-treated at 10 uM” value in data set [2] is reported as 4.1 fold.
Ac-carrr-Aib-r-NH2 [SEQ ID NO: 124]: the “0.5 mg/kg IV bolus % PTH AUC” value in data set [1] (Table 7) is 68%.
For the molecule “Ac-c(C-PEG40)rrrrrr-NH2 [SEQ ID NO: 144]”, in data set [1] (Table 8, compound dosed at 20 mg/kg (~equivalent molarity to 0.5 mg/kg non-PEGylated peptide)), the “% PTH AUC of saline control” value is given as 15%.
On to `CC(=O)N[C@H](CS)C(=O)N[C@H](C)C(=O)N[C@H](CCCNC(=N)N)C(=O)N[C@H](C)C(=O)N[C@H](CCCNC(=N)N)C(=O)N[C@H](C)C(=O)N[C@H](CCCNC(=N)N)C(N)=O` [SEQ ID NO: 148, Ac-cararar-NH2] (Ac-[dC][dA][dR][dA][dR][dA][dR]-NH2), for which the “Histamine in vitro Fold change of non-treated at 10 uM” value in data set [2] is given as 0.6 fold.
The same measure, in the same setting: the figure for `CC(=O)N[C@H](CS)C(=O)N[C@H](CCCNC(=N)N)C(=O)N[C@H](CCCNC(=N)N)C(=O)N[C@H](C)C(=O)N[C@H](CCCNC(=N)N)C(=O)N[C@H](CCC(N)=O)C(=O)N[C@H](CCCNC(=N)N)C(N)=O` [SEQ ID NO: 150, Ac-crrarqr-NH2] (Ac-[dC][dR][dR][dA][dR][dQ][dR]-NH2) is 1.6 fold.
As to Ac-crr-dNle-rar-NH2 [SEQ ID NO: 138], the “0.5 mg/kg IV bolus % PTH AUC” value in data set [1] (Table 7) was found to be 3%.
On the same count and under the same terms, the value for Ac-crrar-Nma-r-NH2 [SEQ ID NO: 119] was 101%.
Same read-out and setting: the figure for Ac-c-Sar-rrr-Sar-r-NH2 [SEQ ID NO: 125] is 65%.
In the case of `CC(=O)N[C@H](CS)C(=O)N[C@H](C)C(=O)N[C@H](CCCCNC(=N)N)C(=O)N[C@H](CCCCNC(=N)N)C(=O)N[C@H](CCCCNC(=N)N)C(=O)N[C@H](C)C(=O)N[C@H](CCCNC(=N)N)C(N)=O` [SEQ ID NO: 154, Ac-ca(dHar)(dHar)(dHar)ar-NH2], the “Histamine in vitro Fold change of non-treated at 10 uM” value in data set [2] is given as 2.7 fold.
For the molecule Ac-crr-Sar-rar-NH2 [SEQ ID NO: 116], in data set [1] (Table 7), the “0.5 mg/kg IV bolus % PTH AUC” value came out at 141%.
For `CC(=O)N[C@@H](CSSC[C@H](N)C(=O)O)C(=O)N[C@H](C)C(=O)N[C@H](CCCNC(=N)N)C(=O)N[C@H](CCCNC(=N)N)C(=O)N[C@H](CCCNC(=N)N)C(=O)N[C@H](C)C(=O)N[C@H](CCCNC(=N)N)C(N)=O` [SEQ ID NO: 34, Ac-C(C)arrrar-NH2], in data set [1] (Table 4), the “0.5 mg/kg IV bolus % PTH AUC” value came out at 17%.
With Ac-carrr-Nma-r-NH2 [SEQ ID NO: 122], the “0.5 mg/kg IV bolus % PTH AUC” value in data set [1] (Table 7) is 74%.
Still for that read-out and setting: the value for Ac-crr-dNva-rar-NH2 [SEQ ID NO: 137] was 3%.
Still for that read-out and setting: the figure for Ac-c-Sar-rrrar-NH2 [SEQ ID NO: 128] is 50%; for Ac-crrar-Sar-r-NH2 [SEQ ID NO: 126] it is 62%; for Ac-c-Nma-rrrar-NH2 [SEQ ID NO: 127] it is 56%.
Take `CC(=O)N[C@H](CS)C(=O)N[C@H](CCCNC(=N)N)C(=O)N[C@H](CCCNC(=N)N)C(=O)N[C@H](C)C(=O)N[C@H](CCCNC(=N)N)C(=O)N[C@H](Cc1c[nH]cn1)C(=O)N[C@H](CCCNC(=N)N)C(N)=O` [SEQ ID NO: 151, Ac-crrarhr-NH2] (Ac-[dC][dR][dR][dA][dR][dH][dR]-NH2): in data set [2], the “Histamine in vitro Fold change of non-treated at 10 uM” value was 2.5 fold.
Regarding `CC(=O)N[C@H](CS)C(=O)N[C@H](C)C(=O)N[C@H](CCCNC(=N)N)C(=O)N[C@H](CCCNC(=N)N)C(=O)N[C@H](CCCCN)C(=O)N[C@H](C)C(=O)N[C@H](CCCNC(=N)N)C(N)=O` [SEQ ID NO: 86, Ac-carrkar-NH2] (Ac-[dC][dA][dR][dR][dK][dA][dR]-NH2), the “Histamine in vitro Fold change of non-treated at 10 uM” value in data set [2] was determined as 1.0 fold.
Take `CC(=O)N[C@H](CS)C(=O)N[C@H](C)C(=O)N[C@H](CCCNC(=N)N)C(=O)N[C@H](CCCNC(=N)N)C(=O)N[C@H](CCCNC(=N)N)C(=O)N[C@H](C)C(=O)N[C@H](CCCCN)C(N)=O` [SEQ ID NO: 70, Ac-carrrak-NH2] (Ac-[dC][dA][dR][dR][dR][dA][dK]-NH2): the “Histamine in vitro Fold change of non-treated at 10 uM” value in data set [2] is 0.9 fold.
For the molecule Ac-c-Aib-rrr-Aib-r-NH2 [SEQ ID NO: 120], the “0.5 mg/kg IV bolus % PTH AUC” value in data set [1] (Table 7) stood at 94%.
For the molecule Ac-carrr-Sar-r-NH2 [SEQ ID NO: 117], the “0.5 mg/kg IV bolus % PTH AUC” value in data set [1] (Table 7) was 111%.
For the molecule Ac-crr-Nma-rar-NH2 [SEQ ID NO: 121], the “0.5 mg/kg IV bolus % PTH AUC” value in data set [1] (Table 7) was 86%.
In the case of `CC(=O)N[C@H](CS)C(=O)N[C@H](CCCNC(=N)N)C(=O)N[C@H](CCCNC(=N)N)C(=O)N[C@H](C)C(=O)N[C@H](CCCNC(=N)N)C(=O)N[C@H](CCCNC(=N)N)C(=O)N[C@H](C)C(N)=O` [SEQ ID NO: 14, Ac-crrarra-NH2] (Ac-[dC][dR][dR][dA][dR][dR][dA]-NH2), in data set [1] (0.5 mg/kg single IV administration), the “PTH-lowering activity in normal rats” value was “inactive”. Further, in data set [1] (Table 2), the “0.5 mg/kg IV bolus % PTH AUC” value was found to be 130%. For the same molecule, the “Histamine in vitro Fold change of non-treated at 10 uM” value in data set [2] amounted to 1.6 fold.
With `CC(=O)N[C@H](CS)C(=O)N[C@H](C)C(=O)N[C@H](CCCNC(=N)N)C(=O)N[C@H](CCCNC(=N)N)C(=O)N[C@H](C)C(=O)N[C@H](CCCNC(=N)N)C(=O)N[C@H](CCCNC(=N)N)C(N)=O` [SEQ ID NO: 16, Ac-carrarr-NH2] (Ac-[dC][dA][dR][dR][dA][dR][dR]-NH2), the “0.5 mg/kg IV bolus % PTH AUC” value in data set [1] (Table 2) is reported as 105%. For the same molecule, the “Histamine in vitro Fold change of non-treated at 10 uM” value in data set [2] amounted to 1.4 fold.
For Ac-c-Aib-rrrar-NH2 [SEQ ID NO: 123], the “0.5 mg/kg IV bolus % PTH AUC” value in data set [1] (Table 7) came to 70%.
Consider `CC(=O)N[C@H](CS)C(=O)N[C@H](C)C(=O)N[C@H](CCCCN)C(=O)N[C@H](CCCCN)C(=O)N[C@H](CCCCN)C(=O)N[C@H](C)C(=O)N[C@H](CCCCN)C(N)=O` [SEQ ID NO: 147, Ac-cakkkak-NH2] (Ac-[dC][dA][dK][dK][dK][dA][dK]-NH2), for which the “Histamine in vitro Fold change of non-treated at 10 uM” value in data set [2] was 1.1 fold.
For the molecule Ac-c(dHcy)arrrar-NH2 [SEQ ID NO: 139], the “0.5 mg/kg IV bolus % PTH AUC” value in data set [1] (Table 8) is 32%.
Take `CC(=O)N[C@H](CS)C(=O)N[C@H](CCCNC(=N)N)C(=O)N[C@H](CCCNC(=N)N)C(=O)N[C@H](C)C(=O)N[C@H](CCCNC(=N)N)C(=O)NCC(=O)N[C@H](CCCNC(=N)N)C(N)=O` [SEQ ID NO: 149, Ac-crrarGr-NH2] (Ac-[dC][dR][dR][dA][dR]G[dR]-NH2): the “Histamine in vitro Fold change of non-treated at 10 uM” value in data set [2] was found to be 1.6 fold.
For the molecule “Ac-c(C-PEG20)rrrrrr-NH2 [SEQ ID NO: 143]”, the “% PTH AUC of saline control” value in data set [1] (Table 8, compound dosed at 10 mg/kg (~equivalent molarity to 0.5 mg/kg non-PEGylated peptide)) is reported as 25%.
